B1: PhoQ; a variant is named by its letters at X, in order, P23837 (parent)
chain: MKKLLRLFFPLSLRVRFLLATAAVVLVLSLAYGMVALIGYSVSFDKTTFRLLRGESNLFYTLAKWENNKLHVELPENIDKQSPTMTLIYDENGQLLWAQRDVPWLMKMIQPDWLKSNGFHEIEADVNDTSLLLSGDHSIQQQLQEVREDDDDAEMTHSVAVNVYPATSRMPKLTIVVVDTIPVELKSSYMVWSWFIYVLSANLLLVIPLLWVAAWWSLRPIEALAKEVRELEEHNRELLNPATTRELTSLVRNLNRLLKSERERYDKYRTTLTDLTHSLKTPLXXLQXXLRSLRSEKMSVSDAEPVMLEQISRISQQIGYYLHRASMRGGTLLSRELHPVAPLLDNLTSALNKVYQRKGVNISLDISPEISFVGEQNDFVEVMGNVLDNACKYCLEFVEISARQTDEHLYIVVEDDGPGIPLSKREVIFDRGQRVDTLRPGQGVGLAVAREITEQYEGKIVAGESMLGGARMEVIFGRQHSAPKDE

The other results are listed elsewhere or left out.

Variants of B1 are the subject of this assay. Description: enrichment ratio after two sorts for PhoP signalling (ratio (wild type AVST 3.29)); higher = more functional. The following applies: with PhoP (E. coli).
Take YTQE: the enrichment ratio is at most 0.25.
To YSMV belongs 10.7; to MMWY, at most 0.25.
To IDPF belongs at most 0.25; to VFTE, at most 0.25.
To KDNH belongs at most 0.25.
Take EHFL: the enrichment ratio was at most 0.25.
Next, FMHW: at most 0.25; NGHQ: at most 0.25; YYQF: at most 0.25.
In the case of DPWD, the enrichment ratio was at most 0.25.
Regarding FHTE, the enrichment ratio was at most 0.25.
Next, PMTS: at most 0.25; VDIH: at most 0.25; RHGQ: at most 0.25.
CSYI: the enrichment ratio was found to be 6.37.
Next, TFLM: 1.51; KYSN: at most 0.25; MMHI: at most 0.25.
To SHEC belongs at most 0.25.
Next, FHQA: at most 0.25; HAIY: at most 0.25; GLWI: at most 0.25.
VNPT: the enrichment ratio is at most 0.25.
Next, VMIR: at most 0.25; YVLE: at most 0.25; LWMF: at most 0.25.
Next, SYFQ: at most 0.25; WLFS: at most 0.25.
Turning to THVA, the enrichment ratio was determined as 0.983.
As for DTPR, the enrichment ratio is at most 0.25.
As for NVER, the enrichment ratio was at most 0.25.
To QNMR belongs at most 0.25; to LGNV, at most 0.25.
On to GSWA, for which the enrichment ratio is at most 0.25.
Next, TYDN: at most 0.25; LNKL: at most 0.25; SHCH: 16.
To LMEH belongs at most 0.25; to PWTD, at most 0.25.
Take PADS: the enrichment ratio is at most 0.25.
Next, IHCC: at most 0.25.
Take PSDE: the enrichment ratio was at most 0.25.
Next, MNTN: at most 0.25; HSMC: at most 0.25; QLYK: at most 0.25.
Next, NTDW: at most 0.25; WQGK: at most 0.25; MHNC: at most 0.25.
Consider DMMN, for which the enrichment ratio was at most 0.25.
Next, LAPE: at most 0.25.
For the variant RPQR, the enrichment ratio is at most 0.25.
Next, YEKL: at most 0.25; TCLM: 1.01.
To VYYY belongs at most 0.25.
To HSVT belongs at most 0.25; to RLYL, at most 0.25.
For the variant AMWK, the enrichment ratio is at most 0.25.
Next, KKVG: at most 0.25; KQGP: at most 0.25; HWHY: at most 0.25.
Next, NLTQ: at most 0.25.
To MNRS belongs 0.447; to PIFC, at most 0.25; to QHVD, at most 0.25.
TYND: the enrichment ratio is at most 0.25.
Next, QGMP: at most 0.25; YEIW: at most 0.25; LCVD: at most 0.25.
Next, EIQR: at most 0.25.
Regarding LLIV, the enrichment ratio is at most 0.25.
In the case of DFEN, the enrichment ratio is at most 0.25.
To AYFD belongs at most 0.25; to MMDD, at most 0.25.
To MDGD belongs at most 0.25.
With SCDH, the enrichment ratio was at most 0.25.
To KEPM belongs at most 0.25; to KTIR, at most 0.25.
To FQHF belongs at most 0.25; to SYAK, at most 0.25; to HVKK, at most 0.25.
To WLIW belongs at most 0.25; to DANY, at most 0.25.
Consider KRTK, for which the enrichment ratio was at most 0.25.
Take LACT: the enrichment ratio is at most 0.25.
Next, AYWP: at most 0.25; VHTI: at most 0.25; SIML: 6.65.
In the case of LAEC, the enrichment ratio is at most 0.25.
To KPLR belongs at most 0.25; to WIVI, at most 0.25; to MCMV, 1.25.
To RICR belongs at most 0.25; to PAKR, at most 0.25; to YPMP, at most 0.25.
To HRQA belongs at most 0.25.
As to CKDS, the enrichment ratio is at most 0.25.
Take NHCC: the enrichment ratio is at most 0.25.
Consider YSTW, for which the enrichment ratio was at most 0.25.
To RPLQ belongs at most 0.25; to PFLS, at most 0.25.
With QLPI, the enrichment ratio is at most 0.25.
For the variant FHSG, the enrichment ratio was at most 0.25.
To PQTA belongs at most 0.25.
Next, PYAP: at most 0.25; NVHG: at most 0.25; QLQY: at most 0.25.
In the case of DKIG, the enrichment ratio is at most 0.25.
To IYRE belongs at most 0.25.
To PICT belongs at most 0.25; to GQPV, at most 0.25; to VWLD, at most 0.25.
To WHFA belongs at most 0.25; to NNNI, at most 0.25.
Turning to FHFD, the enrichment ratio is at most 0.25.
Consider LVSP, for which the enrichment ratio was at most 0.25.
Next, HSVV: at most 0.25.
Next, PATN: at most 0.25.
Next, QFRS: at most 0.25; DCGQ: at most 0.25.
For VCIW, the enrichment ratio was at most 0.25.
In the case of VESG, the enrichment ratio is 3.66.
Next, ITHH: at most 0.25; PPWI: at most 0.25; VWPR: at most 0.25.
Next, HAWR: at most 0.25.
To VRTF belongs at most 0.25; to ASAA, 13.4; to TAPR, at most 0.25.
With KVKC, the enrichment ratio is at most 0.25.
Next, STRN: at most 0.25; DVGG: at most 0.25; GMIT: at most 0.25.
To PFRG belongs at most 0.25; to TMKA, at most 0.25.
For the variant AHTP, the enrichment ratio was at most 0.25.
Next, GIGI: at most 0.25; VCTT: at most 0.25.
On to FGFF, for which the enrichment ratio was at most 0.25.
Next, HTVH: at most 0.25; FWYD: at most 0.25; RFQT: at most 0.25.
To ENVQ belongs at most 0.25.
To GHFQ belongs at most 0.25; to YPSI, at most 0.25; to LSMA, at most 0.25.
Turning to AKDL, the enrichment ratio is at most 0.25.
Next, HMGM: at most 0.25; RHPD: at most 0.25; KAWW: at most 0.25.
Next, QRSW: at most 0.25; GCTI: 0.873.
Next, GPRQ: at most 0.25; DQQR: at most 0.25; NNML: 8.6.
Take YWLA: the enrichment ratio was at most 0.25.
Consider SMAP, for which the enrichment ratio was at most 0.25.
Next, SLWM: at most 0.25; IHIF: at most 0.25.
To DQAY belongs at most 0.25; to DETA, at most 0.25.
For the variant IKQY, the enrichment ratio is at most 0.25.
To IRFL belongs at most 0.25; to WFKT, at most 0.25; to ISNK, at most 0.25.
Next, SGAQ: 2.89; SFCY: at most 0.25; MEVI: 18.2.
To WIWK belongs at most 0.25.
Consider VWMM, for which the enrichment ratio was at most 0.25.
To GCFM belongs at most 0.25; to VWQM, at most 0.25; to TMCH, 15.9.
To KRYA belongs at most 0.25; to WLGD, at most 0.25.
Next, AEFI: 5.49; STWK: at most 0.25; HETQ: at most 0.25.
Turning to NCLK, the enrichment ratio is at most 0.25.
As to ALGF, the enrichment ratio was 3.9.
As for NYIY, the enrichment ratio is at most 0.25.
Next, NADA: at most 0.25; VCCM: 13.1; YPVD: at most 0.25.
Next, SSPE: at most 0.25; HSNE: at most 0.25.
Next, SSFK: at most 0.25; LQKI: at most 0.25.
For the variant SRFS, the enrichment ratio is at most 0.25.
Next, TGSI: 19.6.
To AMVD belongs at most 0.25; to LMVC, at most 0.25.
To MPQA belongs at most 0.25; to KFVH, at most 0.25; to SLVP, at most 0.25.
Consider EQVK, for which the enrichment ratio is at most 0.25.
For the variant HITF, the enrichment ratio is at most 0.25.
Next, NPVE: at most 0.25; NIWG: at most 0.25; GGFT: at most 0.25.
As for ANMP, the enrichment ratio was at most 0.25.
Next, MHVF: at most 0.25; SWPG: at most 0.25; TTAT: 4.52.
To LTDI belongs at most 0.25; to MPSQ, at most 0.25; to SSYA, at most 0.25.
To FSVG belongs at most 0.25; to YDCW, at most 0.25.
As for SVRH, the enrichment ratio was at most 0.25.
Next, HNQS: at most 0.25.
To TYVC belongs at most 0.25; to REYE, at most 0.25; to APIW, at most 0.25.
Next, PTCI: at most 0.25; GQWL: at most 0.25.
As for FVEK, the enrichment ratio is at most 0.25.
Regarding KRSI, the enrichment ratio is at most 0.25.
Next, EASD: at most 0.25; DNHG: at most 0.25.
Next, VGMV: 9.12; DALW: at most 0.25.
Next, QMAP: at most 0.25; RWAP: at most 0.25; ADIT: at most 0.25.
TMII: the enrichment ratio is at most 0.25.
Consider YVVK, for which the enrichment ratio is at most 0.25.
Next, LPQR: at most 0.25; YVWA: at most 0.25; RDNR: at most 0.25.
To RYVH belongs at most 0.25; to MVKN, at most 0.25.
To LKTE belongs at most 0.25; to TSWW, at most 0.25.
Turning to HFVL, the enrichment ratio is at most 0.25.
To FHIE belongs at most 0.25; to RDRK, at most 0.25; to WKSW, at most 0.25.
Next, WSEK: at most 0.25; CFCG: at most 0.25; KCFD: at most 0.25.
Next, DLHI: at most 0.25.
For the variant RWFQ, the enrichment ratio was at most 0.25.
To QQWW belongs at most 0.25.
To QLWR belongs at most 0.25.
Turning to HQVG, the enrichment ratio is at most 0.25.
For QHNL, the enrichment ratio stood at 7.19.
With HRCQ, the enrichment ratio was at most 0.25.
Consider MVYM, for which the enrichment ratio amounted to 4.81.
Next, NMGD: at most 0.25; HGPS: at most 0.25; KKGF: at most 0.25.
To IDLR belongs at most 0.25; to GGMY, at most 0.25.
To YHIA belongs at most 0.25.
As for TGRN, the enrichment ratio was at most 0.25.
To NGKH belongs at most 0.25.
Next, HRRI: at most 0.25; SIQE: at most 0.25; NYAV: at most 0.25.
To TDQD belongs at most 0.25; to QSGG, at most 0.25; to FMME, at most 0.25.
For the variant AFWR, the enrichment ratio was at most 0.25.
In the case of HWTD, the enrichment ratio was at most 0.25.
To LGQF belongs at most 0.25.
PAWE: the enrichment ratio was at most 0.25.
Turning to DMNK, the enrichment ratio is at most 0.25.
Consider NAVP, for which the enrichment ratio is at most 0.25.
To FHEA belongs at most 0.25.
Next, PTSQ: at most 0.25; AEDL: at most 0.25.
Turning to SPTI, the enrichment ratio was at most 0.25.
For TVCP, the enrichment ratio is at most 0.25.
On to DWKW, for which the enrichment ratio is at most 0.25.
To LFVW belongs at most 0.25; to FGGK, at most 0.25.
For LQIW, the enrichment ratio was at most 0.25.
For HEWH, the enrichment ratio was at most 0.25.
Next, EVNK: at most 0.25.
Next, LKKL: at most 0.25; QPFP: at most 0.25; IWTS: at most 0.25.
Regarding VEML, the enrichment ratio was at most 0.25.
To NQLK belongs at most 0.25; to PEST, at most 0.25.
To RLSQ belongs at most 0.25; to PTDR, at most 0.25.
Next, STIP: at most 0.25; EAKQ: at most 0.25; KVAM: at most 0.25.
Take GANR: the enrichment ratio was at most 0.25.
For GRQH, the enrichment ratio is at most 0.25.
To ILSQ belongs at most 0.25; to RDQC, at most 0.25.
Next, SLRQ: at most 0.25.
With SPYI, the enrichment ratio was at most 0.25.
To TDLP belongs at most 0.25; to EEHA, at most 0.25; to HHQF, at most 0.25.
Next, DTDF: at most 0.25.
Next, SLYY: at most 0.25.
In the case of KFFH, the enrichment ratio was at most 0.25.
Next, GEHA: at most 0.25; QHAL: at most 0.25.
Next, AHAV: at most 0.25.

The record behind these values is a collection of fitness landscapes (doi:10.1126/science.1257360).
